Results reported in publication PMC4336329 (PLoS ONE, 2015).
In all, about 310,000 compounds went through this assay and about 2,200 (0.71%) showed an effect of 50% or more. Effects have a minus sign here. Some of the results follow.

Target: human ether-à-go-go-related gene (hERG) potassium channel (human, UniProt Q12809)
Test: primary screen, population patch clamp on CHO cells stably expressing hERG

Sequence of human ether-à-go-go-related gene (hERG) potassium channel (Q12809 whole entry, looked up): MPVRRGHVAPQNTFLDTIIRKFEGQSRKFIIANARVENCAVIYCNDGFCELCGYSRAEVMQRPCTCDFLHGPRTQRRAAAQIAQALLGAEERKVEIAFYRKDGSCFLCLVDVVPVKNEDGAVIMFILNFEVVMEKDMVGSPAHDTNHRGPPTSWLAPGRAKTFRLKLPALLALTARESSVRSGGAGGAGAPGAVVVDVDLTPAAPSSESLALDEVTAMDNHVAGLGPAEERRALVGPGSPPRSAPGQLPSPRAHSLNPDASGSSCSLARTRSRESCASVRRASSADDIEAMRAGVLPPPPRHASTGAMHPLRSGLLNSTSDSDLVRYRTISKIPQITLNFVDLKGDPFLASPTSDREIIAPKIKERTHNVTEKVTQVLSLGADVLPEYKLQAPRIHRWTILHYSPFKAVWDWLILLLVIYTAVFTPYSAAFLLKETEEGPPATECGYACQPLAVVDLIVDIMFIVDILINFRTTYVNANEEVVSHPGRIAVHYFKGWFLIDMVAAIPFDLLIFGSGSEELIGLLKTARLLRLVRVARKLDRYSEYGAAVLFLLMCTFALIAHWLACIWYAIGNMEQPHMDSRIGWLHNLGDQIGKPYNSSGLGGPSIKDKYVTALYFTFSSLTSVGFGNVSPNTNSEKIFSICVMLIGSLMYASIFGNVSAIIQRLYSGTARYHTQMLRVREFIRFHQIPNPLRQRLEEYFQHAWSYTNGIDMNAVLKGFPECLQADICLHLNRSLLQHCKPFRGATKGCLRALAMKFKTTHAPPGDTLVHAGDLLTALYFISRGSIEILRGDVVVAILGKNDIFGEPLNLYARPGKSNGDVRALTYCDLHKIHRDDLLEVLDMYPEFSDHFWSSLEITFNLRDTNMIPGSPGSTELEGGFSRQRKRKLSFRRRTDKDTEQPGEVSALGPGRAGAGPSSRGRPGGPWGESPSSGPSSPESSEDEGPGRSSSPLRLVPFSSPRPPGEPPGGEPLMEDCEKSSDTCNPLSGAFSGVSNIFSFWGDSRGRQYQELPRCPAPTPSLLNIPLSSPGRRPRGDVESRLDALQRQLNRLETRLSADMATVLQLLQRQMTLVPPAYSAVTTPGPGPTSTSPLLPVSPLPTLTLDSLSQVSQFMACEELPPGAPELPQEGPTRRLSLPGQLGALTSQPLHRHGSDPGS

Structure (SMILES)	hERG current change (%, negative = inhibition) at 1uM [%]
Cc1cc(NC(=O)Cc2cccs2)no1	11.1
COC(=O)CSc1nnc(CNC(=O)c2cc(OC)c(OC)c(OC)c2)n1C	-0.921
O=C(COc1ccccc1Cl)NCc1nc(-c2ccccc2)no1	13.2
CCCN(C1CCS(=O)(=O)C1)S(=O)(=O)c1ccc(F)cc1 (stereo not drawn)	5.9
CCCCOC(=O)Nc1ccc(C(C)C)cc1	9.54
COC(=O)c1c(NC(=O)C2CC(=O)NN2Cc2ccccc2)sc(C)c1C (stereo not drawn)	7.96
CCSc1ccccc1C(=O)N1CCN(c2ccccc2F)CC1	20.7
COCCN(C(=O)CSc1cc(C)c2ccccc2n1)c1c(N)n(CC(C)C)c(=O)[nH]c1=O	7.69
Cc1cc(C)n(-c2ccc(C(C)C)cc2)c(=O)c1C#N	16.9
O=C(Nc1nc2ccc(F)cc2s1)C1CCCO1 (stereo not drawn)	2.03
COC(=O)CNC(c1ccccc1Cl)c1cc(Br)ccc1NC(=O)CCN1CCOCC1 (stereo not drawn)	-1.11
O=C(CN1CCN(S(=O)(=O)c2cccs2)CC1)NCC1CCCCC1	-8.89
COc1ccc(/C=N/N2C(=O)CSC2=S)cc1	10.5
CSc1nsc(NC(=O)Cc2ccccc2)n1	8.95
CCOC(=O)C1CCCN(S(=O)(=O)Cc2ccc(Cl)cc2)C1 (stereo not drawn)	8.79
Cc1nn(-c2ccccc2)c(C)c1/C=N/NC(=O)c1cc(C2CC2)[nH]n1	4.75
COc1cc(/C=N/NC(=O)CCN2CCCCC2)ccc1O	6.8
CCn1c(O)c(C=Nc2ccccc2)n(-c2ccccc2)c1=S	9.73
CCOC(=O)C1=C(COC(=O)CCOc2cc(C)ccc2C)NC(=O)NC1C (stereo not drawn)	1.31
O=C(c1ccc2c3n(nc2c1)-c1ccc(Cl)cc1CO3)N1CCCCC1	-1.57
Cc1cccc(Cn2cc(/C=C/[N+](=O)[O-])c3ccccc32)c1	-2.15
CCCN(CC1CC1)c1nc(N)c(C#N)c(CC#N)c1C#N	10.3
Cc1ccc(S(=O)(=O)NCCc2nc3ccccc3[nH]2)cc1	11.1
CCN1CCN(C(=S)Nc2cccc(C(F)(F)F)c2)CC1	3.67
Cc1occc1-c1nnc(SCC(=O)Nc2ccccc2)n1Cc1ccccc1	-19.2
Cc1ccc(C(=O)NNC(=O)c2ccc3c(c2)OCCO3)cc1	4.72
CN1C(=O)NC(c2ccc(O)cc2)C2=C1CN(c1ccccc1)C2=O (stereo not drawn)	8.29
